# The other results are listed elsewhere or left out.
# Key:
# Experiment in all cases: glycan array binding signal (z-score within array); higher = stronger binding
# Conditions in all cases: glycan notation: IUPAC condensed, linker removed
# [1] = target: Neu5Ac(a2-8)Neu5Ac
# Summary of the method: (§1)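 Glycan array binding is given as a within-array Z-score, which can be read as non-binding when negative. The arrays, 3228 of them, came from the Consortium for Functional Glycomics database and were retained only where the protein sequence was available. Z-scores were averaged across arrays of the same protein sequence at different concentrations or buffers and across linkers.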
# [2] = target: Neu5Ac(a2-8)Neu5Ac(a2-3)Gal(b1-3)GalNAc(b1-4)[Neu5Ac(a2-3)]Gal(b1-4)Glc
# Summary of the method: as §1
# [3] = target: Neu5Ac(a2-8)Neu5Ac(a2-3)Gal(b1-3)GalNAc(b1-4)[Neu5Ac(a2-8)Neu5Ac(a2-3)]Gal(b1-4)Glc
# Summary of the method: as §1
# [4] = target: Neu5Ac(a2-8)Neu5Ac(a2-3)Gal(b1-4)Glc
# Summary of the method: as §1
# [5] = target: Neu5Ac(a2-8)Neu5Ac(a2-3)Gal(b1-4)GlcNAc
# Summary of the method: as §1
# [6] = target: Neu5Ac(a2-8)Neu5Ac(a2-3)[Gal(b1-3)GalNAc(b1-4)]Gal(b1-4)Glc
# Summary of the method: as §1
# [7] = target: Neu5Ac(a2-8)Neu5Ac(a2-3)[GalNAc(b1-4)]Gal(b1-4)Glc
# Summary of the method: as §1
# [8] = target: Neu5Ac(a2-8)Neu5Ac(a2-8)Neu5Ac
# Summary of the method: as §1
# [9] = target: Neu5Ac(a2-8)Neu5Ac(a2-8)Neu5Ac(a2-3)Gal(b1-4)Glc
# Summary of the method: as §1
# [10] = target: Neu5Ac(a2-8)Neu5Ac(a2-8)Neu5Ac(a2-3)[Gal(b1-3)GalNAc(b1-4)]Gal(b1-4)Glc
# Summary of the method: as §1
# [11] = target: Neu5Ac(a2-8)Neu5Ac(a2-8)Neu5Ac(a2-3)[GalNAc(b1-4)]Gal(b1-4)Glc
# Summary of the method: as §1
# [12] = target: Neu5Ac(a2-8)Neu5Ac(a2-8)Neu5Ac(a2-8)Neu5Ac(a2-3)[GalNAc(b1-4)]Gal(b1-4)Glc
# Summary of the method: as §1
# [13] = target: Neu5Ac(a2-8)Neu5Gc(a2-3)Gal(b1-4)GlcNAc
# Summary of the method: as §1
# [14] = target: Neu5Ac(b2-6)Gal(b1-4)GlcNAc
# Summary of the method: as §1
# [15] = target: Neu5Ac(b2-6)GalNAc
# Summary of the method: as §1
# [16] = target: Neu5Ac9Ac(a2-3)Gal(b1-3)GlcNAc
# Summary of the method: as §1
# [17] = target: Neu5Ac9Ac(a2-3)Gal(b1-4)GlcNAc
# Summary of the method: as §1
# [18] = target: Neu5Ac9Ac(a2-6)Gal(b1-4)GlcNAc
# Summary of the method: as §1
# [19] = target: Neu5Gc(a2-3)Gal(b1-3)GlcNAc
# Summary of the method: as §1
# [20] = target: Neu5Gc(a2-3)Gal(b1-3)[Fuc(a1-4)]GlcNAc
# Summary of the method: as §1
# [21] = target: Neu5Gc(a2-3)Gal(b1-4)Glc
# Summary of the method: as §1
# [22] = target: Neu5Gc(a2-3)Gal(b1-4)GlcNAc
# Summary of the method: as §1
# [23] = target: Neu5Gc(a2-3)Gal(b1-4)GlcNAc(b1-3)Gal(b1-4)GlcNAc(b1-2)Man(a1-3)[Neu5Gc(a2-3)Gal(b1-4)GlcNAc(b1-3)Gal(b1-4)GlcNAc(b1-2)Man(a1-6)]Man(b1-4)GlcNAc(b1-4)GlcNAc
# Summary of the method: as §1
# [24] = target: Neu5Gc(a2-3)Gal(b1-4)[Fuc(a1-3)]GlcNAc
# Summary of the method: as §1
# [25] = target: Neu5Gc(a2-6)Gal(b1-4)GlcNAc
# Summary of the method: as §1
# [26] = target: Neu5Gc(a2-6)GalNAc
# Summary of the method: as §1
# [27] = target: Neu5Gc(a2-8)Neu5Ac(a2-3)Gal(b1-4)GlcNAc
# Summary of the method: as §1
# [28] = target: Neu5Gc(a2-8)Neu5Gc(a2-3)Gal(b1-4)GlcNAc
# Summary of the method: as §1
# [29] = target: Neu5Gc(a2-8)Neu5Gc(a2-3)Gal(b1-4)GlcNAc(b1-3)Gal(b1-4)GlcNAc
# Summary of the method: as §1
# [30] = target: Neu5Gc(a2-8)Neu5Gc(a2-6)Gal(b1-4)GlcNAc
# Summary of the method: as §1
# [31] = target: Neu5Gc(b2-6)Gal(b1-4)GlcNAc
# Summary of the method: as §1
binder,measurement,setting,value
GS13455A-bfa-343-25-343 (Bacteroides fragilis) (protein) KDEIQIVDQDTSWQMDNKYIEEDIREQLGIDPFTDLVYLGYYGNPYTQLEAINDLVNTTLVGKNELSFKVKVTKPYKEDIKVNLMKEDKLVTDFPEMAEGIPLFPSENCTFEGGVLKAGELETTVKLTLKDVEKLNNLSGYVMAIKLTMEGSHEHLAIARTRSSYFVKLNLSIRLDNIDSSNKKIEGKGFNKEISFKSDIRPDKLGSLNDGNFTANNWYTSNANNYLTIILPEKQSLKGFRLDTNTSPSGSYMLKSCRVMVETPDGNWVNHGVFDRKSMDGIAYISFKKPVECTKVRFENMMAFNGRFSVDVNEVTAFR,glycan array binding signal (z-score),[1],0.26
same,glycan array binding signal (z-score),[2],-0.06
same,glycan array binding signal (z-score),[3],0.078
same,glycan array binding signal (z-score),[4],-0.628
same,glycan array binding signal (z-score),[5],0.185
same,glycan array binding signal (z-score),[6],0.853
same,glycan array binding signal (z-score),[7],1.28
same,glycan array binding signal (z-score),[8],0.381
same,glycan array binding signal (z-score),[9],-0.302
same,glycan array binding signal (z-score),[10],-0.113
same,glycan array binding signal (z-score),[11],0.04
same,glycan array binding signal (z-score),[12],-0.191
same,glycan array binding signal (z-score),[13],-0.418
same,glycan array binding signal (z-score),[14],-0.1
same,glycan array binding signal (z-score),[15],-0.449
same,glycan array binding signal (z-score),[16],0.012
same,glycan array binding signal (z-score),[17],-0.504
same,glycan array binding signal (z-score),[18],0.139
same,glycan array binding signal (z-score),[19],-0.514
same,glycan array binding signal (z-score),[20],0.473
same,glycan array binding signal (z-score),[21],-0.775
same,glycan array binding signal (z-score),[22],-0.186
same,glycan array binding signal (z-score),[23],0.694
same,glycan array binding signal (z-score),[24],-0.324
same,glycan array binding signal (z-score),[25],-0.207
same,glycan array binding signal (z-score),[26],-0.577
same,glycan array binding signal (z-score),[27],-0.522
same,glycan array binding signal (z-score),[28],0.527
same,glycan array binding signal (z-score),[29],-0.184
same,glycan array binding signal (z-score),[30],-0.53
same,glycan array binding signal (z-score),[31],0.902

# From the supplement of paper PMC8728848
